PubChem BioAssay (NCATS)
The shares of active, inactive and inconclusive entries below differ from those in the screen. For part of these data: Potencies of inconclusive entries are left out as doubtful fits. Activity calls are given as the source filed them. Calls follow the shape of the dose curve; as a rule, active = well fitted inhibition curve with a large enough effect; inconclusive = small, poorly fitted or top-dose-only effect; inactive = no such curve, though single readings can be large or run the other way.

Test: BET inhibitor-based combinations targeting novel dependencies in MECOM-rearranged (r) AML: OCI-AML3 cell line (AID 2202232);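 as to viability (% of control): plate controls were DMSO vehicle wells for no effect and wells without cells for full effect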
Conditions: CellTiter-Glo luminescence, 48 h; Potency: OCI-AML3 viability; viability (% of control): at 46 µM (top of the series)
Method in brief: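 Viability of cells (500 per well) is scored by luminescent CellTiter-Glo at 48 hr post-dosing. Eleven-point titrations are normalized to DMSO and empty controls and reduced to AUC values.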
Also: nearly all actives have a fitted effect of over 35% in size.
Potency is read from the fitted curve at half-maximal effect; tags tell the direction and shape of the fitted curve.

Compound | Potency | viability (% of control)
CNC1CCC(N(Cc2cccc(-c3ccncc3)c2)C(=O)c2sc3ccccc3c2Cl)CC1 (stereo not given) | active: 18.6 µM | 
Cn1cc(-c2c[nH]c3ncnc(N4CCOCC4)c23)cn1 |  | inconclusive: 88.8% [inhibitor]
CC(C)(C)C(=O)CN1C(=O)[C@H](NC(=O)Nc2cccc(C(=O)O)c2)CN(C2CCCCC2)c2ccccc21 | inactive | 
COCCCc1sc(-c2ccccc2)nc1C(=O)Nc1ccccc1-c1nc2cc(CN3CCCC3)cnc2s1 | active: 9.1 µM | 
C[C@@H]1O[C@@H](O[C@@H]2\C=C/C=C\C=C/C=C\C[C@H](C)OC(=O)/C=C\[C@H]3O[C@@H]3C[C@H](O)C[C@]3(O)C[C@@H](O)[C@@H](C(=O)O)[C@H](C2)O3)[C@H](O)[C@H](N)[C@@H]1O | inactive | 

Test: BET inhibitor-based combinations targeting novel dependencies in MECOM-rearranged (r) AML: HNT-34 cell line (AID 2202234);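 as to viability (% of control): plate controls were vehicle wells for no effect and cell-free wells for full effect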
Conditions: HNT-34 AML viability, CellTiter-Glo luminescence, 48 h; series mostly up to 46 µM
Method in brief: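 Using pin-tool transfer, drugs were added in 11 doses to cells (500/well), incubated 48 hr, and assessed with CellTiter-Glo. Z-AUC is a mean-centring transformation applied separately to each screened line.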

Compound | Potency
Cn1cc(-c2c[nH]c3ncnc(N4CCOCC4)c23)cn1 | inconclusive [inhibitor, partial curve, poor fit]
COc1cccc2nc(-c3cccs3)nc(NN3C(=O)C=C(C)C3=O)c12 | active: 0.263 µM
C[C@H]1O[C@@H](O[C@H]2[C@@H](O)C[C@H](O[C@H]3[C@@H](O)C[C@H](O[C@H]4CC[C@@]5(C)[C@H](CC[C@@H]6[C@@H]5C[C@@H](O)[C@]5(C)[C@@H](C7=CC(=O)OC7)CC[C@]65O)C4)O[C@@H]3C)O[C@@H]2C)C[C@H](O)[C@@H]1O | active: 0.105 µM
CCOc1cc(C(C)(C)C)ccc1C1=N[C@@](C)(c2ccc(Cl)cc2)[C@@](C)(c2ccc(Cl)cc2)N1C(=O)N1CCN(CC(=O)N2CCOCC2)CC1 | inconclusive [inhibitor, full curve, poor fit]
COCCCc1sc(-c2ccccc2)nc1C(=O)Nc1ccccc1-c1nc2cc(CN3CCCC3)cnc2s1 | inconclusive [inhibitor, partial curve]
C[C@@H]1O[C@@H](O[C@@H]2\C=C/C=C\C=C/C=C\C[C@H](C)OC(=O)/C=C\[C@H]3O[C@@H]3C[C@H](O)C[C@]3(O)C[C@@H](O)[C@@H](C(=O)O)[C@H](C2)O3)[C@H](O)[C@H](N)[C@@H]1O | inactive
O=C1CCCC2=C1C(c1[nH]ncc1Cl)N=C(Nc1nc3ccccc3o1)N2 (stereo not given) | inconclusive [inhibitor, partial curve]
CNS(=O)(=O)c1ccc2c(c1)/C(=C/c1[nH]c3c(c1CCCN1CCN(C)CC1)CCCC3)C(=O)N2 | active: 20.9 µM
C[C@H](Nc1ncnc2nc[nH]c12)c1cc2cccc(Cl)c2c(=O)n1-c1ccccc1 | inconclusive [inhibitor, partial curve]
CN(C)c1ccc(-c2nc3ncc(Cl)c(N4CCN(CC(=O)Nc5nccs5)CC4)c3[nH]2)cc1 | inconclusive [inhibitor, full curve]
